In all, about 360,000 compounds went through this assay and about 11,000 (3.1%) were called active. Inconclusive means that the source gave no clear call. Such entries were picked first, then a sample of the others. The call rests on the fitted dose curve; in most records, active means well fitted inhibition curve with a large enough effect; inconclusive means small, poorly fitted or top-dose-only effect; inactive means no such curve, though single readings can be large or run the other way. No potency is given beside an inconclusive call; the fits are too rough.
These molecules were tested against Schistosoma mansoni thioredoxin glutathione reductase (TGR) (UniProt Q962Y6) (assay: qHTS Assay for the Inhibitors of Schistosoma Mansoni Peroxiredoxins). Conditions: purified TGR, DTNB reduction, TNB absorbance 405 nm; activity change, negative = inhibition: at 114 µM (top of the series) unless noted.
In short: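 First, TGR (20 nM dispensed) and NADPH were mixed with compound. Second, a 15 min room-temperature incubation followed. Third, further NADPH and then DTNB were added to start the reaction. Finally, TNB absorbance was monitored kinetically.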
Further: nearly all actives have a fitted effect of over 60% in size.
On the % scale 0 is the no-effect control and ±100 the full control effect; potency means the concentration at half of the fitted maximal effect; tags describe the fitted curve by direction and shape.

SMILES | Potency | activity change, negative = inhibition
COc1ccc(N2CCC(CNC(=O)Nc3ccccc3)C2)cc1 (configuration not stated) | inconclusive [inhibitor, partial curve, poor fit] | –
Cc1cc(C)n(-c2ncnc3ccccc23)n1 | inactive | –
Cc1cc(C)nc(SCc2ccc(C(=O)N/N=C/C3CCCCC3)cc2)n1 | inconclusive [inhibitor, single point] | –
COc1ccc([C@]23Cc4ccccc4C(O2)C2=C(CC(C)(C)CC2=O)O3)cc1 | inconclusive [inhibitor, full curve] | –
Cc1c(C(=O)OCc2ccccc2)[nH]c2c1C(=O)CC(c1ccco1)C2 (configuration not stated) | inconclusive [inhibitor, partial curve] | –
Cc1nn(C(C)c2n[nH]c(=S)n2-c2cccc(Cl)c2)c(C)c1[N+](=O)[O-] (configuration not stated) | inactive | –
Cc1cccc(N(C)S(=O)(=O)c2nnc(NC(=O)C(C)Oc3ccccc3)s2)c1 (configuration not stated) | inconclusive [inhibitor, partial curve] | –
Cc1cccc(N2CCN(C(=O)CCS(=O)(=O)c3ccc4c(c3)CC(=O)N4C)CC2C)c1 (configuration not stated) | active: 12.6 µM | –
Clc1ccc2nc(-c3ccccc3)cn2c1 | inactive | –
Oc1c(C(c2ccco2)N2CCC3(CC2)OCCO3)sc2ncnn12 (configuration not stated) | inconclusive [inhibitor, partial curve] | –
CC(C)(C)n1nnnc1C(c1ccccc1F)N(Cc1ccco1)CC1CCCO1 (configuration not stated) | inconclusive [inhibitor, partial curve] | –
COC(=O)c1sc2nc3c(cc2c1N)CCCC3 | inactive | –
CCCn1cc(CN2CCc3ccc(NC(=O)C4CCCO4)cc3C2)c(C)n1 (configuration not stated) | – | inconclusive: -37% [inhibitor]
Fc1ccccc1N1CCN(C(c2ccccn2)c2nnnn2C2CCCCC2)CC1 (configuration not stated) | inconclusive [inhibitor, partial curve] | –
COc1cc(C2C(C#N)=C(N)Oc3cc(C)n(CC4CCCO4)c(=O)c32)cc2c1OCO2 (configuration not stated) | active: 44.7 µM | –
Cn1c(=O)c2c(nc(N3CCCCCC3)n2Cc2cccc3ccccc23)n(C)c1=O | inactive | –
Fc1ccccc1-c1csc(-c2cccnc2)n1 | inconclusive [inhibitor, partial curve, poor fit] | –
CCN1/C(=C/C=C/c2oc3ccc(-c4ccccc4)cc3[n+]2CC)Oc2ccc(-c3ccccc3)cc21 | active: 39.8 µM | –
COC(=O)c1c(NC(=O)/C=C/C(=O)O)sc(C)c1-c1ccc(C(C)C)cc1 | inconclusive [inhibitor, single point] | –
COCCN(CC1CCCN(C2Cc3ccccc3C2)C1)C(=O)c1ccc(C(C)=O)cc1 (configuration not stated) | inconclusive [inhibitor, partial curve] | –
O=C(c1ccc(NC(=S)NCc2ccco2)cc1)N1CCCCC1 | inconclusive [inhibitor, partial curve] | –
O=C(CSc1nc2ccccc2[nH]1)NCc1ccccc1 | inconclusive [inhibitor, partial curve, poor fit] | –
O=C(NCC(c1ccco1)N1CCOCC1)c1ccc(Cl)cc1 (configuration not stated) | inactive | –
O=C(/C=C/c1ccc([N+](=O)[O-])cc1)NC1CC2CCC1C2 (configuration not stated) | inactive | –

SMILES | Potency | activity change, negative = inhibition
Cn1nnc(NC(=S)NC(=O)c2ccco2)n1 | inconclusive [inhibitor, partial curve] | –
Cn1c(=O)oc2cc(S(=O)(=O)NC(Cc3ccccc3)C(=O)Nc3ccc(F)c(Cl)c3)ccc21 (configuration not stated) | inactive | –
CN(C)S(=O)(=O)c1ccc(C(=O)OCC(=O)NCc2ccco2)cc1 | active: 35.5 µM | –
Cn1c(SCc2cccc(Cl)c2)nc(C(F)(F)F)cc1=O | inconclusive [inhibitor, partial curve] | –
CCOc1ccc(NC(=S)NC(=O)C2CCCC2)cc1 | inconclusive [inhibitor, partial curve] | –
CCCOc1ccc([C@@H]2C3CN(C(=O)OCC)CC=C3C(C#N)=C(N)C2(C#N)C#N)cc1OC (some centres not stated) | inconclusive [inhibitor, partial curve] | –
O=C(NCCC1=CCCCC1)C(=O)NCC(c1ccco1)N1CCN(c2ccccc2F)CC1 (configuration not stated) | inconclusive [inhibitor, single point] | –
CCOC(=O)C1CCN(Cc2cn3c(-c4ccc(OC)cc4)nnc3s2)CC1 | inconclusive [inhibitor, single point] | –
O=C(NC(=S)NNC(=O)c1cc2ccccc2cc1O)c1ccco1 | inactive | –
Cc1ccc(C2C=C(c3ccccc3)Nc3nc(NS(C)(=O)=O)nn32)cc1 (configuration not stated) | inconclusive [inhibitor, partial curve] | –
Cc1ccc(C(=O)Nc2c(C(=O)Nc3ccc(C)c(C)c3)sc3nc(C)cc(C)c23)cc1 | inactive | –
O=C(CSc1ncc(-c2ccccc2)nn1)NCc1ccco1 | inconclusive [inhibitor, partial curve] | –
C=CCn1c(O)c(C(C)=Nc2ccc(N(C)C)cc2)c(=O)[nH]c1=O | inactive | –
CCN(CC(=O)Nc1ccc(NC(C)=O)cc1)C(=O)c1ccccc1Sc1ccccc1C#N | inactive | –
CC(=O)Nc1ccc(S(=O)(=O)Nc2cccc(-c3cn4c(n3)SCC4)c2)cc1 | inactive | –
CN(C)C/C(Cl)=C(\Cl)c1ccccc1 | active: 20 µM | –
c1cc(CSc2nnc(-c3ccc4c(c3)OCO4)o2)ccn1 | – | inconclusive: -37.3% [inhibitor]
COc1cccc(NC2=C(C#N)C(=O)NC(c3cccc(OC)c3O)S2)c1 (configuration not stated) | active: 7.94 µM | –
COc1ccc(CNC(=S)Nc2cc(OC)ccc2OC)cc1 | inconclusive [inhibitor, partial curve] | –
Cc1ccc(-c2cnc(-c3ccccc3C(=O)O)o2)cc1 | inactive | –
O=C(Oc1cccnc1)c1ccc([N+](=O)[O-])cc1Cl | inconclusive [inhibitor, partial curve] | –
Cc1ccc(Cl)cc1NC(=O)CCn1cccc1 | inconclusive [inhibitor, full curve] | –
Cc1cccc(NC(=O)CN(C)S(=O)(=O)c2ccc3c(c2)c(=O)n(C)c(=O)n3C)c1C | inconclusive [inhibitor, single point] | –
Cn1c(NCc2c(O)ccc3ccccc23)nc2ccccc21 | inactive | –

SMILES | Potency | activity change, negative = inhibition
Cc1c(Br)c(O)c(Br)c2sc(=O)oc12 | active: 2.82 µM | –
Cc1[nH]c(=O)c(C(=O)/C=C/c2ccccc2F)c2c1CCCC2 | active: 100 µM | –
CCOC(=O)c1c(-c2ccc(C)cc2)csc1NC(=O)c1cc(-c2ccc(OC)cc2)on1 | inactive | –
CCOc1ccc(NC(=O)c2sc(-n3nc(C)c(Cc4ccc(Cl)cc4)c3C)nc2C)cc1 | inactive | –
O=C(O)/C=C/c1cn(-c2ccccc2)nc1-c1ccccc1 | inconclusive [inhibitor, single point] | –
CC1(c2ccccc2)NC(=O)N(CC(=O)Nc2ccccc2N2CCCCC2)C1=O (configuration not stated) | inactive | –
COC(=O)Cc1ccc(NC(=S)Nc2ccccn2)cc1 | inconclusive [inhibitor, partial curve] | –
c1ccc(-c2ccn3nnnc3n2)cc1 | inconclusive [inhibitor, partial curve] | –
COC(=O)c1ccc(CSc2ccc3nnc(-c4ccccc4)n3n2)o1 | active: 56.2 µM | –
CCc1nc(SCC(=O)N2CCCC2)c2c(=O)n(C)c(=O)n(C)c2n1 | inactive | –
Cc1ccc(-c2cc(C(F)(F)F)n3ncc(C(=O)NCc4ccco4)c3n2)cc1 | inconclusive [inhibitor, partial curve] | –
COc1cccc(=O)c2c(C)n(CC(=O)c3ccccc3)c(C)c12 | inconclusive [inhibitor, partial curve] | –
COCCN1Cc2cccc(C(=O)NC(C)CCc3ccco3)c2C1=O (configuration not stated) | inconclusive [inhibitor, partial curve] | –
OCCn1c(CSc2nnc(-c3ccco3)n2-c2ccccc2)nc2ccc(Cl)cc21 | inconclusive [inhibitor, partial curve, poor fit] | –
CCOc1ccc(NC(=O)CC2C(=O)N(c3ccc(OC)cc3)C(=O)N2CCC2=CCCCC2)cc1 (configuration not stated) | inconclusive [inhibitor, single point] | –
O=CNn1cnc2c(oc3nc(-c4ccccc4)cc(-c4ccco4)c32)c1=O | active: 39.8 µM | –
Cc1cc(C(=O)OCC(=O)NCc2ccco2)c(C)n1-c1ccc(F)cc1 | inconclusive [inhibitor, partial curve] | –
O=C(CCn1c(SCC(=O)NCc2ccco2)nc2ccccc2c1=O)NCCc1ccccc1 | inconclusive [inhibitor, single point] | –
Cn1c(=O)c2cc(S(=O)(=O)NCCC(=O)N3CC=C(c4ccccc4)CC3)ccc2n(C)c1=O | inconclusive [inhibitor, single point] | –
CC(=O)N1N=C(c2cccc([N+](=O)[O-])c2)OC1c1cccc(Br)c1 (configuration not stated) | inconclusive [inhibitor, full curve] | –
Cc1ccc2[nH]c(=O)c(CN(CCCN(C)C)C(=O)Nc3ccc(Cl)cc3)cc2c1 | inactive | –
CCc1nc(NCc2ccco2)c2oc3ccccc3c2n1 | inconclusive [inhibitor, partial curve] | –
O=C(CCS(=O)(=O)c1ccccc1)Nc1nc2cc3c(cc2s1)OCO3 | active: 10 µM | –
CCC(=Nc1ccc2c(c1)CCC2)c1c(O)n(-c2ccc(OC)cc2)c(=O)[nH]c1=O | inconclusive [inhibitor, single point] | –
